Hit rate of the full screen: of about 310,000 compounds, about 2,200 (0.71%) showed an effect of 50% or more. Effects have a minus sign here. This is one part of the list.
Biological target: human ether-à-go-go-related gene (hERG) potassium channel (human, UniProt Q12809)
Test: primary screen, population patch clamp on CHO cells stably expressing hERG

Sequence of human ether-à-go-go-related gene (hERG) potassium channel (Q12809 whole entry, looked up): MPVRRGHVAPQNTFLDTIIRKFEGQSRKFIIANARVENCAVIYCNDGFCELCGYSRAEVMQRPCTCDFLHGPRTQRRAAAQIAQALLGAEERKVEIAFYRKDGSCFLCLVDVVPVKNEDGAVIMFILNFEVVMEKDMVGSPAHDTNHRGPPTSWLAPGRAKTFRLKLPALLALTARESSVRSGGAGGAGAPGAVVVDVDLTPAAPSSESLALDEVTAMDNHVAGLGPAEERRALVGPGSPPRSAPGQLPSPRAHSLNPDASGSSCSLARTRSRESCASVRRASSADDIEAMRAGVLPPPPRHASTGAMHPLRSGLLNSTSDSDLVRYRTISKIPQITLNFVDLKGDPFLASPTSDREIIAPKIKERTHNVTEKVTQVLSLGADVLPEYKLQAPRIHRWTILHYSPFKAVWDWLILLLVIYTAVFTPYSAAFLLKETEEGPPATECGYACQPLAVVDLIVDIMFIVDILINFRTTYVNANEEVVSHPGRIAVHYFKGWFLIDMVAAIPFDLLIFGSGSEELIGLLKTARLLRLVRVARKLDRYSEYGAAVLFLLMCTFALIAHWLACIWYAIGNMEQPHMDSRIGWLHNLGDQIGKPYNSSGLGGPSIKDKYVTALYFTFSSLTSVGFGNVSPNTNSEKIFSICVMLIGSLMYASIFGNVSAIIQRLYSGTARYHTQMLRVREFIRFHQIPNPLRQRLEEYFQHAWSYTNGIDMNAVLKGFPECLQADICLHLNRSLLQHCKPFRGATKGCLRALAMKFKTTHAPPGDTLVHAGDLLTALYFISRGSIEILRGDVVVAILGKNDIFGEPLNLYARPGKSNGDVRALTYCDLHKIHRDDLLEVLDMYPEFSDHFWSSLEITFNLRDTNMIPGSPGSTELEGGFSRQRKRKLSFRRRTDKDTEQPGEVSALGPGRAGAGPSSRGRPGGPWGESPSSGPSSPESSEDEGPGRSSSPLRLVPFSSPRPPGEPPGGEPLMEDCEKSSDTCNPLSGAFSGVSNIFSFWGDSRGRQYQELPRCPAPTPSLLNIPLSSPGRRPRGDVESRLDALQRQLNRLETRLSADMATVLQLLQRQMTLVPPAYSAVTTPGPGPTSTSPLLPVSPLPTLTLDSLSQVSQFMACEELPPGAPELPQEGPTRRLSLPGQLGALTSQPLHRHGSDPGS

Row | Structure (SMILES) | hERG current change (%, negative = inhibition) at 1uM [%]
1 | CCOC(=O)c1cc(-c2ccccc2)sc1NC(=O)CC(C)C | 1.47
2 | CCC1(C)N=c2c(c(=O)n(C)c(=O)n2C)=NO1 (centres unmarked) | -10.7
3 | CCOc1ccc(S(=O)(=O)N(C)c2ccc(OCC(=O)Nc3ccc4[nH]c(=O)[nH]c4c3)cc2)cc1 | 15.3
4 | COC(=O)C1(S(=O)(=O)c2cccc3nsnc23)CC1 | 10.3
5 | CC(O)c1nc2ccccc2n1CC(=O)Nc1ccc(F)cc1Cl (centres unmarked) | 10.3
6 | CCC(C)N(CC(=O)Nc1cccc(C)c1C)C(=O)CCl (centres unmarked) | -0.274
7 | Cc1ccc(NC(=O)N(Cc2nc3ccccc3c(=O)[nH]2)Cc2cccs2)cc1 | 5.74
8 | CCCCCC1C/C(=N\O)C=C(C)C1C(=O)OC (centres unmarked) | 13.4
9 | COC(=O)CNC(=O)C1CCN(S(=O)(=O)c2cnc[nH]2)CC1 | 9.77
10 | COC(=O)c1cc(Cc2ccc(N)c(C(=O)OC)c2)ccc1N | 10.2
11 | CC(C)(C)OC(=O)N1CSC[C@H]1C(=O)NC[C@H](CC(=O)O)c1ccc(Cl)cc1 | 13.8
12 | Cc1ccc(S(=O)(=O)c2nnn3c2nc(N2CCC(C(N)=O)CC2)c2ccccc23)cc1C | 6.73
13 | NC(=O)CSc1ncnc2c1cnn2Cc1ccccc1 | 9.35
14 | Cc1ccc(NC(=O)c2cccs2)cc1S(=O)(=O)Nc1cccc(Cl)c1 | 7.95
15 | Cc1cc(Cn2ccnc2)c(C)c([N+](=O)[O-])c1Cn1ccnc1 | -4.61
16 | CCOc1ccc2nc(SC3CC(=O)N(c4ccc(OC)cc4OC)C3=O)sc2c1 (centres unmarked) | 6.38
17 | Cc1ccc(S(=O)(=O)N2CCN(S(=O)(=O)c3ccc(C)cc3)C3OCCOC32)cc1 (centres unmarked) | 4.18
18 | O=C1/C(=C/c2ccccc2)SC(=S)N1N1C(=O)C2CC2C1=O (centres unmarked) | 8.24
19 | COC(=O)c1cc2c(s1)-c1ccc(OC)cc1CC2 | 15.8
20 | CCOC(=O)/C(=N/Nc1ccccc1OC)N1CCCc2ccccc21 | 8.83
21 | O=C(COc1ccccc1)Nc1cccc(-c2ccc(N3CCOCC3)nn2)c1 | 7.22
22 | CN(C)c1nc(N(C)C)n(C(=O)c2ccc(F)cc2)n1 | 11.4

Row | Structure (SMILES) | hERG current change (%, negative = inhibition) at 1uM [%]
23 | O=[N+]([O-])c1ccccc1S(=O)(=O)Nc1ccn(Cc2c(F)cccc2Cl)n1 | 10.3
24 | Cc1c(C)n2c(SCC(=O)N3CCCCCC3)nnc2[nH]c1=O | 19.6
25 | CCCCCn1c(CNC(=O)CCC)nc2ccccc21 | -12.4
26 | Cc1ccc(NC(=O)Cn2c(=O)oc3ccccc32)cc1Cl | 14.8
27 | O=[N+]([O-])c1ccc2c(c1)C(N1CCOCC1)/C(=C/COc1ccc(Cl)cc1Cl)O2 (centres unmarked) | 11.2
28 | O=S(=O)(Nc1ccccc1Br)c1cccs1 | 9.87
29 | COc1ccc(S(=O)(=O)N2CCC(N3CCN(Cc4ccccc4)CC3)CC2)cc1.O=C(O)C(=O)O | -14.4
30 | CC1CCN(S(=O)(=O)c2ccc(NC(=O)Cc3cccs3)cc2)CC1 | 10.4
31 | CCN=C1Cn2c(nc3scc(-c4ccccc4)c3c2=O)CN1CC | -2.4
32 | CCNC(=O)C1CCCN1S(=O)(=O)c1ccc(C)cc1 (centres unmarked) | 14
33 | Cc1ccc(SCCC(=O)OCn2nnc3ccccc3c2=O)cc1 | 19.6
34 | CC1CCCCC12NC(=O)N(CC(=O)N(C)Cc1nc3ccccc3c(=O)[nH]1)C2=O (centres unmarked) | 3.81
35 | COc1ccc(-c2cc(C)no2)cc1S(=O)(=O)N1CCOc2ccccc21 | 8.79
36 | CCc1ccc(NC(=S)N(CCCN2CCN(C)CC2)Cc2cccs2)cc1 | -22.9
37 | CCOc1ccccc1CNC(=O)C1CCN(C(=O)c2sccc2-n2cccc2)CC1 | 3.71
38 | Cl.OCCNc1nc(NCc2ccccc2)c2ccccc2n1 | -16
39 | COc1ccc(C(=O)NCCc2nnc3ccc(SCC(=O)NCc4ccc(F)cc4)nn23)cc1 | 12.7
40 | Cc1cccc(OCC(=O)NCC(=O)N/N=C/c2cccs2)c1 | 6.98
41 | OCC[C@H]1C[C@@H](O)[C@H](O)[C@@]2(CCCc3ccccc3O2)O1 | 11.3
42 | Cc1ccc(-n2c(O)c(C=Nc3ccc(S(=O)(=O)N(C)C)cc3)c(=O)[nH]c2=O)cc1 | 13.9
43 | O=C(NCc1ccco1)c1ccc2c(=O)n(CCC3=CCCCC3)c(=O)[nH]c2c1 | 17.7
44 | O=C(NNC(=S)NC(=O)c1cccc([N+](=O)[O-])c1)c1ccc(O)cc1 | 16.1

Row | Structure (SMILES) | hERG current change (%, negative = inhibition) at 1uM [%]
45 | CCN(CC)S(=O)(=O)c1ccc2c(c1)C(=NO)c1cc(S(=O)(=O)N(CC)CC)ccc1-2 | 5.26
46 | Cc1cc2nc(SCC(=O)Nc3nonc3C)c3c(c2cc1C)CCCC3 | 4.6
47 | Cc1cccc(N2C(=O)N3[C@H](c4ccc(Cl)cc4)[C@@H]4C(=O)N(C5CCCCC5)C(=O)[C@@H]4[C@]3(Cc3ccc(Cl)cc3)C2=O)c1 | 6.27
48 | CC(C)CCNC(=O)Cc1ccccc1[N+](=O)[O-] | -1.26
49 | Cc1nn(C)cc1/C=C(/C#N)C(N)=O | 9.79
50 | O=C(Nc1ccc(N2CCOCC2)cc1)c1ccc(Cl)c(S(=O)(=O)N2CCCCC2)c1 | 14.3
51 | COc1ccc2c(c1)c1nc3ccccc3nc1n2CCCN1C(=O)c2ccccc2C1=O | 7.9
52 | COc1ccc(OCCn2cnc3ccccc32)cc1 | 5.37
53 | COc1c(C)cc(C(=O)C2CCCN(C3CCOCC3)C2)cc1C (centres unmarked) | 0.691
54 | CCCn1c(=O)c2ccccc2n2c(SCC(=O)N3CCc4ccccc4C3)nnc12 | 11.2
55 | C#Cc1ccc2c(c1)COc1c3ccccc3nn1-2 | 9.48
56 | COC/C=C/C1=CC2=CC(=O)C(C)(OC(=O)c3cnc4ccccc4n3)C(=O)C2=CN1CCCOC(C)C (centres unmarked) | 4.37
57 | CCCCCC(/C=N/Nc1ccc(S(=O)(=O)N2CCOCC2)cc1[N+](=O)[O-])=C\c1ccccc1 | 11.1
58 | CC1(C)C2CCC1(CS(=O)(=O)N1CCC(C(N)=O)CC1)C(=O)C2 (centres unmarked) | 0.553
59 | Cc1cccc(C(=O)NCCc2nnc(SCC(=O)Nc3nc(C)cs3)n2C)c1 | 1.36
60 | O=c1c2oc3ccccc3c2ncn1Cc1ccc(Cl)cc1 | 6.5
61 | O=C(NCc1ccc(Cl)cc1)c1cccc(S(=O)(=O)N2CCCC2)c1 | -1.68
62 | Cc1ccc(C(=O)N(CC(C)C)c2c(N)n(Cc3ccccc3)c(=O)[nH]c2=O)o1 | 8.34
63 | Cc1cc(C)c2c(c1)SC1=NC(c3ccccc3)(C(F)(F)F)NC(=O)N12 (centres unmarked) | 16.3
64 | O=C(COC(=O)c1c2c(nc3ccccc13)CCCCC2)c1ccc(Cl)s1 | 8.05
65 | CNc1nnc(CSc2nc(C)cc(C)n2)s1 | 10.8
66 | CC(=O)Nc1cccc(NC(=O)CSc2nc3c(=O)n(C)c(=O)n(C)c3n2C)c1 | 12.6

Row | Structure (SMILES) | hERG current change (%, negative = inhibition) at 1uM [%]
67 | CCCOC(=O)Cc1n[nH]c(=O)[nH]c1=O | 7.23
68 | CCOc1cc(Br)c(C(=O)O)cc1OCC | 10.3
69 | Cc1ccc(C)c(Cc2c(C)nc3c(C(=O)NCc4ccc5c(c4)OCO5)cnn3c2C)c1 | -7.34
70 | Clc1ccc(CSc2ncccn2)cc1 | 19.7
71 | CCOC(=O)CC1(NC(=O)c2cc(COc3c(F)cccc3F)on2)CCCCC1 | 9.32
72 | CCn1nc(C(=O)NNC(=O)c2ccccc2OCc2c(C)noc2C)c2ccccc2c1=O | 9.55
73 | CCn1cc(Cl)c(C(=O)N2N=C3/C(=C/c4cccs4)CCCC3C2c2cccs2)n1 (centres unmarked) | -11
74 | COc1ccc(OC)c(N2C(=O)[C@@H]3C(c4ccccc4Cl)=NO[C@@H]3C2=O)c1 | 12.3
75 | CC(C)c1ccc(C2NC(=S)NC3=C2C(=O)CC(C)(C)C3)cc1 (centres unmarked) | 10.9
76 | COc1ccc(-c2n[nH]c(=S)n2/N=C/C=C/c2ccccc2OC)cc1 | 4.69
77 | COc1ccc(CCNC(=O)C2CCCN(c3ncnc4c3nc3n4CCCCC3)C2)c(OC)c1 (centres unmarked) | 0.102
78 | Cc1ccc(Cn2nnnc2CN2CCC(c3nc4ccc(Cl)cc4[nH]3)CC2)cc1 | 4.97
79 | COCC[N+]1(C)CCCCC1.[I-] | 7.75
80 | Cn1c(=O)c2c(ncn2CC(=O)Nc2nc3ccc(F)cc3s2)n(C)c1=O | -1.86
81 | COc1ccc(NCc2nnc(SCC(=O)c3ccc(OC)cc3)n2C)cc1 | 6.84
82 | CC(=O)Nc1nc(C)c(Oc2ccc(Cl)cc2)c(=O)[nH]1 | 12.8
83 | CC(C)(C)C1CCC(=NNc2ccc(S(N)(=O)=O)cc2[N+](=O)[O-])CC1 (centres unmarked) | 9.23
84 | CCCN(CCC)c1nc(Cl)nc(NCCN2CCOCC2)n1 | 9.86
85 | Cn1c(COc2ccc(Cl)cc2Cl)nnc1SCC(=O)NCC1CCCO1 (centres unmarked) | 1.31
86 | O=C(O)C1CCC(N2C(=O)c3cccc([N+](=O)[O-])c3C2=O)CC1 (centres unmarked) | 16.5

Source: PMC4336329 (PLoS ONE, 2015)
